About 4,200 (1.3%) of roughly 330,000 compounds were called active. The shares of active, inactive and inconclusive entries below differ from those in the screen. The call rests on the fitted dose curve; in most records, active means well fitted activation curve with a large enough effect; inconclusive means small, poorly fitted or top-dose-only effect; inactive means no such curve, though single readings can be large or run the other way. Potencies of inconclusive entries are doubtful fits and often do not repeat.
Experiment: qHTS screen for small molecules that induce genotoxicity in human embryonic kidney (HEK293T) cells expressing luciferase-tagged ELG1; further: nearly all actives have a fitted effect of over 60% in size
Settings: HEK293T ELG1-luciferase reporter, luminescence, 16 h; series mostly up to 46 µM
In short: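 Genotoxic stress is detected as increased luminescence from luciferase-tagged ELG1 in HEK293T cells, measured with ONE-Glo after a 16 hr treatment at 37 °C.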
Potency means the concentration at half of the fitted maximal effect; tags describe the fitted curve by direction and shape.

Row | SMILES | Potency
1 | CC(C)(CO)NC(=O)c1ccc2c(c1)C(=O)c1ccccc1-2 | active: 23.1 µM
2 | CC1(C)Cc2nc3oc4c(N(CCO)Cc5ccccc5)ncnc4c3cc2CO1 | inactive
3 | O=C(NC(=S)Nc1ccccc1F)C1CCCCC1 | inconclusive: 32.6 µM [activator, partial curve, poor fit]
4 | CN(C)c1c([N+](=O)[O-])cc2[nH]c(=O)[nH]c2c1[N+](=O)[O-] | inconclusive: 16.4 µM [activator, partial curve, poor fit]
5 | Cc1ccsc1/C=N\Nc1cn[nH]c(=O)c1Cl | active: 20.6 µM
6 | CCOC(=O)c1c(C)[nH]c(C(=O)N/N=C\c2ccccc2O)c1C | inconclusive: 18.4 µM [activator, single point]
7 | O=C(Nc1nc(-c2nc3ccccc3s2)cs1)c1ccco1 | inconclusive: 16.4 µM [activator, partial curve, poor fit]
8 | CCn1cc(CN2CCC(Oc3ccc(C(=O)N4CCCCC4)cc3)CC2)cn1 | inactive
9 | C/C(=N\NC(=O)c1c[nH]c2ccccc12)c1ccc(C)s1 | inconclusive: 10.3 µM [activator, partial curve]
10 | O=C(NCc1nc2ccccc2[nH]1)C1CCCCC1 | inactive
11 | O=c1c2ccccc2[nH]c(=S)n1CCN1CCC(=C(c2ccc(F)cc2)c2ccc(F)cc2)CC1 | inconclusive: 23.1 µM [activator, partial curve, poor fit]
12 | CCn1nc(C(=O)NNS(=O)(=O)c2cc(/C=C/C(=O)O)cc(OC)c2OC)c2ccccc2c1=O | inactive
13 | O=[N+]([O-])c1ccc(N/N=C/c2ccccc2)c(F)c1 | inconclusive: 13 µM [activator, partial curve, poor fit]
14 | Cc1cccnc1NC(=O)COc1ccc2c(c1)CCC2 | active: 9.2 µM
15 | COCCCN(C(=O)c1ccccc1F)c1nc(-c2ccc(OC)cc2)cs1 | inactive
16 | CCC(=O)Nc1nnc(-c2cccs2)s1 | inconclusive: 16.4 µM [activator, single point]
17 | CCOc1cc(/C=N/Nc2cccc(C(=O)O)c2)ccc1OCC(=O)N1CCCCC1 | inconclusive: 20.6 µM [activator, partial curve, poor fit]
18 | On1onc2c3cc(-c4ccccc4)nc3ccc21 | inconclusive: 10.3 µM [activator, partial curve]
19 | Cc1cc(C(=O)COC(=O)C2=COCCO2)c(C)n1-c1ccccc1 | active: 0.259 µM
20 | COC(=O)C[C@H](NC(=O)Cn1cnc2c(SC)nc(N)nc21)C(=O)OC | inactive
21 | O=C(CNC(=O)c1ccccc1Cl)OCC(=O)N1CCc2ccccc21 | inconclusive: 20.6 µM [activator, partial curve, poor fit]
22 | COc1ccc(CC(=O)Nc2cc(C)ccn2)cc1 | inconclusive: 8.2 µM [activator, partial curve, poor fit]
23 | CCC(C)Nc1nc(N)c([N+](=O)[O-])c(NCCO)n1 (centres undefined) | inconclusive: 14.6 µM [activator, partial curve, poor fit]
24 | Cc1c(C)n(CCc2ccccc2)c2ncnc(NCCCO)c12 | inconclusive: 2.31 µM [activator, full curve]
25 | Cc1csc(NC(=S)NC(=O)c2ccccc2)n1 | active: 20.6 µM

Row | SMILES | Potency
26 | O=C(CN(Cc1ccccc1Cl)C(=O)c1csnn1)NCc1ccccc1 | inactive
27 | CCc1ccc(C(=O)NNc2ccccc2F)cc1 | inconclusive: 13 µM [activator, partial curve]
28 | Cc1ccc2nc(Nc3nc(C)cc(-c4ccccc4)n3)[nH]c(=O)c2c1 | inconclusive: 32.6 µM [activator, partial curve, poor fit]
29 | CCOC(=O)c1ccc(NC(=O)COC)cc1 | inconclusive: 29.1 µM [activator, single point]
30 | CC(=O)N1CCN(C(=O)c2ccc(-n3c(C)ccc3C)cc2)CC1 | inconclusive: 20.6 µM [activator, single point]
31 | Nc1nccc(-c2ccc(-n3cnc4ccccc43)cc2)n1 | inactive
32 | Cc1ccc(Nc2ccc(C(=O)O)cc2N)cc1 | inconclusive: 5.8 µM [activator, partial curve, poor fit]
33 | CC(=O)Oc1c(C)cc(Cl)cc1C(=O)Nc1ccc([N+](=O)[O-])cc1Cl | inconclusive: 14.6 µM [activator, single point]
34 | C=C(C)c1ccccc1 | inactive
35 | Cc1ccsc1C(=O)Nc1nc2ccccc2[nH]1 | active: 1.16 µM
36 | CN(C(=O)c1cc(COc2c(F)cccc2F)on1)C1CCOC1 (centres undefined) | inconclusive: 29.1 µM [activator, single point]
37 | Cc1nn(C)cc1C(=O)Nc1ccc2c(c1)OCCO2 | inconclusive: 8.2 µM [activator, partial curve]
38 | C=CC(C)N1C(=O)S/C(=C\c2ccc(N3CCOCC3)cc2C)C1=O (centres undefined) | inconclusive: 20.6 µM [activator, partial curve, poor fit]
39 | Cc1c(C(=O)O/N=C(\N)c2ccccn2)cccc1[N+](=O)[O-] | active: 2.06 µM
40 | COc1ccc(-c2noc(C)c2-c2ccc3ccccc3n2)c(O)c1 | inactive
41 | Cc1ccc(NC2CC(=O)N(c3ccc(C)cc3)C2=O)cc1 (centres undefined) | inconclusive: 29.1 µM [activator, partial curve, poor fit]
42 | CCOC(=O)N1CCN(CC(=O)Nc2ccc(Oc3ccccc3)cc2)CC1 | inactive
43 | O=C(CSCc1ccc(Cl)cc1)N/N=C/c1ccco1 | inconclusive: 9.2 µM [activator, partial curve, poor fit]
44 | COc1cc(C(=O)Nc2cc(C)ccn2)cc(OC)c1OC | inactive
45 | Cc1ccc(Nc2c([N+](=O)[O-])c(=O)n(C)c3ccccc23)cc1C | inactive
46 | C=CCn1c(NC(=O)c2ccccc2)nc2ccccc21 | inactive
47 | Cn1c(NC(=O)c2cc(-c3ccc4c(c3)OCO4)nc3ccccc23)cc(=O)n(C)c1=O | inconclusive: 13 µM [activator, partial curve, poor fit]
48 | C(=N\Nc1nc2ccccc2[nH]1)/c1ccc2c(c1)OCCO2 | inconclusive: 0.82 µM [activator, full curve, poor fit]
49 | O=C(c1ccco1)N1CCN(Cc2c(F)cccc2Cl)CC1 | inconclusive: 20.6 µM [activator, partial curve, poor fit]
50 | O=C(COc1ccc(Br)cc1Br)NC(=S)Nc1cccc(CO)c1 | active: 7.31 µM

Row | SMILES | Potency
51 | CCc1cccc(C)c1NC(=O)CN1CCN(S(=O)(=O)c2ccc(C(C)(C)C)cc2)CC1 | inactive
52 | Cc1ccc(C2=N/C(=C/N3CCOCC3)C(=O)O2)cc1 | active: 16.4 µM
53 | Cc1ccc(C)c(C(=O)CSc2nnnn2C(C)C)c1 | inconclusive: 23.1 µM [activator, partial curve, poor fit]
54 | O=C(O)c1cccc(CSc2nnc(Cc3ccccc3)o2)c1 | inconclusive: 6.51 µM [activator, partial curve, poor fit]
55 | O=C1c2ccccc2-c2onc3c(Oc4ccccc4)cc(O)c1c23 | inconclusive: 32.6 µM [activator, partial curve, poor fit]
56 | COc1ccccc1NC(=O)Nc1sccc1-c1nc2ccccc2s1 | inactive
57 | O=C(N/N=C/c1c[nH]c2ccccc12)c1sc2ccccc2c1Cl | inconclusive: 20.6 µM [activator, partial curve, poor fit]
58 | CC(=O)N1CCC(N(CCN2CCOCC2)C(=S)Nc2ccc(C)cc2C)CC1 | inconclusive: 29.1 µM [activator, single point]
59 | Cc1cccc(C)c1NC(=O)CN1CCN(CCCC(c2ccc(F)cc2)c2ccc(F)cc2)CC1 | inconclusive: 1.83 µM [activator, single point]
60 | Cc1ccc(Nc2nc(-c3ccncc3)cs2)cc1 | inconclusive: 2.91 µM [activator, partial curve]
61 | CC(=O)Oc1cccc(C(=O)Nc2ccc(NC(=O)c3cccs3)cc2)c1 | inconclusive: 2.59 µM [activator, full curve]
62 | COc1cc(/C=N\NC(=O)Cn2nnc3ccccc32)cc(OC)c1OC | inactive
63 | CCc1nnc(NS(=O)(=O)c2ccc(NCc3cc(Cl)ccc3O)cc2)s1 | inactive
64 | COC(=O)c1ccccc1NC(=O)Nc1ccc2c(c1)OCO2 | inconclusive: 23.1 µM [activator, partial curve, poor fit]
65 | O=C(COc1ccccc1C(=O)O)Nc1nc2ccc([N+](=O)[O-])cc2s1 | inactive
66 | CC(=O)c1cccc(NC(=O)c2noc3c2CCc2ccccc2-3)c1 | inconclusive: 5.8 µM [activator, partial curve, poor fit]
67 | Cc1cc(=O)oc2cc(OCCc3ccccc3)ccc12 | inconclusive: 13 µM [activator, partial curve]
68 | COc1ccc(CNC(=O)C2COc3ccccc3O2)cc1 (centres undefined) | inactive
69 | CC1(C)CC(=O)C(CC(=O)NC(=O)NCc2ccccc2)=C(O)C1 | inactive
70 | COc1ccc(NC(=O)CSc2nnc3c4c(nc(-c5ccccc5)n23)CC(C)(C)OC4)cc1 | inactive
71 | O=C(Nc1ccc2c(c1)OCCO2)c1ccccc1F | active: 1.84 µM
72 | COc1ccc2oc(C(=O)NCCN3CCOCC3)c(C)c2c1OC | active: 10.3 µM
73 | COc1ccc(Nc2oc(-c3ccc(F)cc3)nc2C#N)cc1 | inconclusive: 13 µM [activator, partial curve, poor fit]
74 | Cc1ccc(-n2nc3c(n2)/C(=N/O)CC/C3=N\O)cc1 | inconclusive: 4.11 µM [activator, partial curve]

From PubChem BioAssay AID504466 (National Center for Advancing Translational Sciences (NCATS), 2011)
